Assay results: PubChem BioAssay AID463173 (ICCB-Longwood Screening Facility, Harvard Medical School, 2010)
In all, about 52,000 compounds went through this assay and about 1,700 (3.3%) were called active. Rule as the data show it: active = survival mostly below about 52% (no sharp cut-off); inactive = mostly above about 56%. The list shows a part of the results.

These compounds were tested on Wild type (assay: growth inhibition of S. aureus wild type versus tarO mutant, primary screen, teichoic acid synthesis inhibitors, RN4220, OD600 (AID 463173)). Conditions: S. aureus RN4220 wild type/DeltatarO growth, OD600, 18 h, stronger effect = lower value, screened at 18.75 µg/mL (by protocol).

SMILES | survival
Cn1c(=O)n(C)c2cc(NS(=O)(=O)c3ccc(F)cc3)ccc21 | inactive: 82%
COc1cccc(C(=O)Nc2ccc3nc(SCC(=O)N4CCOCC4)sc3c2)c1 | inactive: 75%
Cc1ccc(OCC(=O)N(c2ccc(C)cc2)S(=O)(=O)c2ccc(Cl)cc2)cc1 | inactive: 66%
Cc1ccc2c(CN3CCN(C(=O)c4ccc(F)cc4)CC3)cc(=O)oc2c1 | inactive: 73%
CNc1nnc(-c2ccccc2)s1 | inactive: 112%
O=C(CS(=O)(=O)c1cccc2nsnc12)Nc1ccccc1 | inactive: 74%
CCOc1ccccc1NC(=O)CSc1nc(=O)[nH]c2c1CCCC2 | inactive: 65%
CC(C)(C)c1ccc(C(=O)NCCc2csc3nc(-c4ccccc4F)nn23)cc1 | inactive: 71%
CSCCC(NS(=O)(=O)c1ccc2c(c1)oc(=O)n2C)C(=O)N1CCN(c2cc(C)ccc2C)CC1 (configuration not stated) | inactive: 65%
COc1ccc(C2CC(=O)NC(NC(=O)c3ccc(Br)cc3)=N2)c(OC)c1OC (configuration not stated) | inactive: 68%
COc1ccccc1CNC(=O)CN1C(=O)COc2ccc(S(=O)(=O)Nc3ccccc3)cc21 | inactive: 133%
CN(Cc1ccccc1)C(=O)c1ccc2c(c1)N(Cc1ccccc1F)C(=O)c1ccccc1S2(=O)=O | inactive: 98%
O=C(Nc1cc(-c2nc3ccccc3s2)ccc1Cl)c1cc2ccccc2o1 | inactive: 124%
COc1ccc(OC)c(NC(=O)Cn2cnc3ccc(S(=O)(=O)N4CCC(C)CC4)cc3c2=O)c1 | inactive: 77%
COc1cc(/C=C/c2nc(C#N)c(N3CCCCCC3)o2)cc(OC)c1OC | inactive: 116%
CN(C(=O)CSc1nc2ccc(NC(=O)COc3ccc(Cl)cc3)cc2s1)c1ccccc1 | inactive: 78%
CCCOc1cccc(NC(=O)c2c(-c3ccccc3Cl)noc2C)c1 | inactive: 71%
O=C(Nc1cc2c(s1)CCCC2)c1ccccc1 | inactive: 122%
O=S(=O)(Nc1ccccc1C(F)(F)F)c1ccc(N2CCCCS2(=O)=O)cc1 | inactive: 136%
COc1ccc(Cl)cc1NS(=O)(=O)c1ccc2[nH]c3c(c2c1)CCCC3 | inactive: 63%
Cc1cccc(C)c1NC(=O)Cn1c(=O)n(Cc2ccccc2)c(=O)c2c(C)c(C(=O)N(C)C)sc21 | inactive: 110%
CC(=O)N(Cc1cccnc1)c1nc2c(F)cc(F)cc2s1 | inactive: 71%

SMILES | survival
Cc1ccc(Cl)cc1-n1c(=O)cc(N2CCN(c3ccc(F)cc3)CC2)[nH]c1=O | inactive: 79%
Cc1cc(C)c2oc(C(=O)Nc3ccc(S(=O)(=O)N4CCCCC4)cc3)cc(=O)c2c1 | inactive: 82%
Cc1ccc(-c2nc3sc(CCNS(=O)(=O)c4cc(F)ccc4F)c(C)n3n2)cc1 | active: -4%
Cn1c(=O)c2c(-c3ccc(Cl)cc3)n(Cc3ccccc3)cc2n(C)c1=O | inactive: 81%
O=C(CSc1nccn1Cc1ccco1)Nc1ccc(F)cc1 | inactive: 59%
COc1ccc(CNC(=O)CSc2nc3ccccc3nc2Cc2ccccc2)cc1 | inactive: 72%
COc1cccc(NC(=O)C2CCC(CNS(=O)(=O)c3ccc4c(c3)CC(C)N4C(C)=O)CC2)c1 (configuration not stated) | inactive: 95%
CCOC(=O)c1cc(S(=O)(=O)Nc2ccc(C)cc2Cl)[nH]n1 | inactive: 53%
COc1cccc(/C=C/c2nc(C#N)c(NCCN(C)C)o2)c1 | inactive: 102%
COc1ccc(S(=O)(=O)NCCc2cc3ccc(C)c(C)c3[nH]c2=O)cc1 | inactive: 120%
COc1ccc(Cn2c(CCC(=O)NCc3cccc(Cl)c3)nc3cccnc32)cc1 | inactive: 130%
CCOC(=O)c1[nH]c(C)c(CCC(=O)NCc2ccc(N(C)C)cc2)c1C | inactive: 93%
CCCc1cc(=O)n2[nH]c(NCc3ccc(CC)cc3)nc2n1 | inactive: 90%
O=C1c2[nH]nc(-c3ccccc3)c2C(c2ccccc2)N1c1cccc(C(F)(F)F)c1 (configuration not stated) | inactive: 41%
O=C1SC(Nc2ccc(Cl)cc2)C(=O)N1Cc1ccccc1 (configuration not stated) | inactive: 90%
Cc1ccc2oc(C(=O)Nc3ccc(S(=O)(=O)Nc4onc(C)c4C)cc3)cc(=O)c2c1 | inactive: 85%
O=C1CS(=O)(=O)C2(C(=O)N(Cc3ccc(F)cc3)c3ccccc32)N1c1cccc(C(F)(F)F)c1 (configuration not stated) | inactive: 135%
CC1CCN(S(=O)(=O)c2ccc3c(c2)N(CC(=O)NCCc2ccc(Cl)cc2)C(=O)CO3)CC1 | inactive: 97%
Cc1ccc(NC(=O)CCCn2c3ccccc3c(=O)c3cc(C)ccc32)c(Br)c1 | inactive: 64%
CCOC(=O)c1c(C)[nH]c(C)c1S(=O)(=O)N1CCC(C(=O)N2CCN(c3cc(C)ccc3C)CC2)CC1 | inactive: 84%
Cc1c(Cl)cccc1Nc1nc(N)nc(CSc2nc3ccccc3s2)n1 | inactive: 63%
COc1cccc(C(=O)NCC(=O)OCc2cc(=O)n3nc(C)sc3n2)c1 | inactive: 136%

SMILES | survival
O=C(CSc1ncc(S(=O)(=O)c2ccc(Cl)cc2)c(=O)[nH]1)Nc1ccc2c(c1)OCCO2 | inactive: 85%
CCCC(=O)Nc1nnc(SCc2cc(=O)c3ccc(C)cc3[nH]2)s1 | inactive: 127%
COc1cc2c(cc1OC)CN(C(=O)CSc1nc(C)cc(C)c1C#N)CC2 | inactive: 99%
CCCCNC(=O)C1=CC(c2ccc3c(c2)OCO3)=NS(=O)(=O)N1C | inactive: 82%
CCOc1ccc(-c2c(C#N)c(N)nc3sc(C(=O)OC)c(N)c23)cc1 | inactive: 110%
CCOc1ccc(N(C)C(=O)C2CCN(S(=O)(=O)c3ccc4c(c3)CCCN4C(C)=O)CC2)cc1 | inactive: 72%
CCC(Sc1nc2ccncc2[nH]1)C(=O)Nc1ccc(F)cc1 (configuration not stated) | inactive: 123%
COc1cccc(-n2c(=O)c3sc4ccccc4c3n(CC(=O)Nc3ccccc3OC)c2=O)c1 | inactive: 87%
Cc1ccc(-n2nc(CO)c(C(=O)NCCc3ccccc3)n2)cc1 | inactive: 90%
COc1cccc(C(C(=O)NC2CCCCC2)N(C(=O)c2ccccn2)c2cccnc2)c1 (configuration not stated) | inactive: 94%
O=S(=O)(c1ccccc1)c1nnn2c1nc(Nc1ccccc1)c1cc(Cl)ccc12 | inactive: 119%
Cc1ccc(Cl)cc1N1CCN(C(=O)Cn2ncc3c([nH]c4ccccc43)c2=O)CC1 | inactive: 75%
Cc1cc(C)cc(NC(=O)C(NS(=O)(=O)c2cccc3nsnc23)c2ccccc2)c1 (configuration not stated) | inactive: 80%
O=C(CSc1nnc(-c2ccc(Cl)cc2)o1)N1CCc2ccccc21 | inactive: 85%
Cc1ccc(Cn2cnc3c(oc4ccccc43)c2=O)cc1 | inactive: 89%
CCCCOc1nnc(-c2ccc(OCC)cc2)c2ccccc12 | active: -1%
COc1ccc(CCNC(=O)CCc2cn(Cc3ccc(C)cc3)c3ccccc23)cc1OC | inactive: 70%
CCOC(=O)N1CCN(C(=O)c2ccc3c(c2)N(Cc2cc(C)ccc2C)C(=O)c2ccccc2S3=O)CC1 (configuration not stated) | inactive: 89%
Cc1oc2ccc(O)c(CN(C)Cc3ccccc3)c2c1C(=O)Nc1cccc(Cl)c1C | inactive: 39%
CCCCn1c2ccccc2c2nnc(SCC(=O)Nc3ccc(NC(C)=O)cc3)nc21 | inactive: 89%
Cc1ccccc1NC(=O)c1c2c(nc3ccccc13)C(=O)N(C1CCCCC1)C2 | inactive: 79%
CCCCn1c(=N)n(CC(O)COc2ccccc2)c2ccccc21 (configuration not stated) | inactive: 121%

SMILES | survival
O=C(Nc1onc2c1CCCC2)c1ccc(Cl)cc1 | inactive: 75%
CCc1nc2nc(C)cc(Nc3ccc(Br)cc3F)n2n1 | inactive: 133%
COc1ccccc1-c1cc(C(F)(F)F)nc(S(=O)(=O)CCCC(=O)Nc2cc(C)ccc2O)n1 | inactive: 51%
Cn1ccnc1SCC(=O)N1c2ccccc2-c2c(ssc2=S)C1(C)C | inactive: 114%
Cc1ccc2c(c1)c1c3n2CCN(C(=O)CN2CCN(C(=O)c4ccco4)CC2)C3CCC1 (configuration not stated) | inactive: 126%
CCc1c(C)sc(NC(=O)c2cc(-c3ccc(OC)cc3)on2)c1C#N | inactive: 85%
CC(=O)Nc1ccc(S(=O)(=O)Nc2ccc(-c3cn4c(C)csc4n3)cc2)cc1 | inactive: 69%
COC(=O)c1cc(S(=O)(=O)N2CCN(c3cccc(C)c3)C(C)C2)c[nH]1 (configuration not stated) | inactive: 98%
Cc1ccc2c(=O)c(C(=O)c3ccc(F)cc3)cn(CC(=O)NC3CCCCC3)c2n1 | inactive: 66%
CCOc1ccc(CNC(=O)c2cc3c(=O)n(Cc4cccs4)ccc3nc2C)cc1 | inactive: 118%
COc1ccc(-c2nc3ccc(NS(=O)(=O)c4ccccc4)cc3o2)cc1 | inactive: 49%
Cc1cc2cc(CN(CC3COCCO3)S(=O)(=O)c3ccc(F)cc3)c(=O)[nH]c2cc1C (configuration not stated) | inactive: 101%
COc1cccc(CNC(=O)c2cc3n(n2)CCCN(Cc2ccc(C)cc2)C3=O)c1OC | inactive: 70%
COc1ccc2c(Sc3ccccc3)c(C(=O)NCc3ccc(OC(C)C)cc3)[nH]c2c1 | inactive: 125%
CCOc1ccc(-n2c(SCC(=O)NCc3ccco3)nc3c([nH]c4ccccc43)c2=O)cc1 | active: 10%
Cc1cccc(-c2nnc3n(CCc4ccccc4)c(=O)c4ccccc4n23)c1 | inactive: 56%
Cc1ccc(C)c(NC(=O)N2CCN(C)c3ncccc32)c1 | inactive: 72%
Cc1ccc(Cn2ccnc2SCC(=O)Nc2ccc3c(c2)OCO3)cc1 | inactive: 101%
Cc1ccc(NC(=O)c2sc(-n3nc(C)c(Cc4ccc(Cl)cc4)c3C)nc2C)cc1 | inactive: 77%
Cc1ccc(-n2c3nc(=O)[nH]c(=O)c-3cc3c(Cl)cccc32)cc1 | inactive: 95%
COc1ccc(Cl)cc1NC(=O)Cn1c(=O)n(Cc2ccco2)c(=O)c2ccc(C(=O)NC3CCCC3)cc21 | inactive: 87%
